The whole screen tested about 310,000 compounds, of which about 2,200 (0.71%) showed an effect of 50% or more. Effects have a minus sign here. The list shows a part of the results.
Each compound was assayed against human ether-à-go-go-related gene (hERG) potassium channel (human, UniProt Q12809) (assay: primary screen, population patch clamp on CHO cells stably expressing hERG).
Sequence of human ether-à-go-go-related gene (hERG) potassium channel (Q12809 whole entry, looked up): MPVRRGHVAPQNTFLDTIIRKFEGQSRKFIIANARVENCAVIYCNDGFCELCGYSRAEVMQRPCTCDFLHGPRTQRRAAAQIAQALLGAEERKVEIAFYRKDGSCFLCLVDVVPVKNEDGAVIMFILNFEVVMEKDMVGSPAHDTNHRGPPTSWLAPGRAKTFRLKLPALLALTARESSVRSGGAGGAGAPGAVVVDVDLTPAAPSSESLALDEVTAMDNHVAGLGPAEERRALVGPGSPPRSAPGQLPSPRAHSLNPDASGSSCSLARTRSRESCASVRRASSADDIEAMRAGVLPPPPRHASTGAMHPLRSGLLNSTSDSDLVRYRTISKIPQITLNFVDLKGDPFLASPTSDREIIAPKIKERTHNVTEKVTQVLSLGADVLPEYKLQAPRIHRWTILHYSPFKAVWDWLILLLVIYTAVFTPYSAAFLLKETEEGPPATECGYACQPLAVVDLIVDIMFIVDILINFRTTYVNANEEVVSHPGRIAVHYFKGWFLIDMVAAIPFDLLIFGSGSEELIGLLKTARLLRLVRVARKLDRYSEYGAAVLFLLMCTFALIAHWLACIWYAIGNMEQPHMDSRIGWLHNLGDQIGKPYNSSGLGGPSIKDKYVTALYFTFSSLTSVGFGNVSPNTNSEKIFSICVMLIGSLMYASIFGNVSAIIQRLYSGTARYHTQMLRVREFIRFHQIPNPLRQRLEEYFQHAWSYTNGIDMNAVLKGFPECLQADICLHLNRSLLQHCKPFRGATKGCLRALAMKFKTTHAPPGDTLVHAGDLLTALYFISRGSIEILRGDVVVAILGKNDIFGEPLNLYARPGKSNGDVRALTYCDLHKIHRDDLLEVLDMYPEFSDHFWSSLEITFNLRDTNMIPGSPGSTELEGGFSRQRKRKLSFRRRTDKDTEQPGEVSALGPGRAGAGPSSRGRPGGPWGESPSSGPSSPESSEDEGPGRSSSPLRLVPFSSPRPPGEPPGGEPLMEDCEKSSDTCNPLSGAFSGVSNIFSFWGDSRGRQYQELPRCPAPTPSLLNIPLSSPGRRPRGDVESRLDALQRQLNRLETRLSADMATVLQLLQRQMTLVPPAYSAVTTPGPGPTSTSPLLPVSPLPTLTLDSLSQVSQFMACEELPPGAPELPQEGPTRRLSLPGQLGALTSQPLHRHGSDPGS

Row | Compound | hERG current change (%, negative = inhibition) at 1uM
1 | COCCNC(=O)c1cccc(NC(=O)C2=C(C)OCCS2)c1 | 21.9%
2 | COc1ccc(S(=O)(=O)N2CCCCCC2)cc1C(=O)OCC(=O)NC(C)(C)C | 7.68%
3 | CC1CN(C(=S)Nc2cccc([N+](=O)[O-])c2)CC(C)O1 (centres unmarked) | 4.48%
4 | CCCNCc1cc(OC)c(OCCC)cc1Cl.Cl | 2.01%
5 | Cc1cccc(C(=O)NC(CC(=O)O)c2ccc(OC3CCCC3)cc2)c1[N+](=O)[O-] (centres unmarked) | 14.5%
6 | Cc1cc(C)c(NC(=O)CSc2nnc(CNC(=O)c3c(F)cccc3Cl)o2)c(C)c1 | 17.2%
7 | CC1(C)CC(=O)C(C(O)c2cccc([N+](=O)[O-])c2)C(C)(C)N1 (centres unmarked) | 7.76%
8 | Cc1nc(Nc2cccc(C(C)O)c2)c2nnn(Cc3ccccc3F)c2n1 (centres unmarked) | 7.21%
9 | O=C(Nc1nc2c(s1)CCCC2)c1cc2n(n1)C(C(F)(F)F)CC(C1CC1)N2 (centres unmarked) | 11.3%
10 | CC1=CC(C)(C)NC(=S)N1c1ccc(C)cc1C | 5.69%
11 | Cc1cc2c(ncn2C)c(NS(=O)(=O)c2ccc(F)cc2)c1C | -1.31%
12 | O=c1c2ccccc2nc2n1C(CSCc1ccccc1)CS2 (centres unmarked) | -8.16%
13 | CN1CCN(CC(=O)Nc2nc(-c3c[nH]c4ccccc34)cs2)CC1 | 10.5%
14 | CC12C=CC3(CN(Cc4ccccc4)C(=O)C3C1C(=O)NCc1ccco1)O2 (centres unmarked) | 6.32%
15 | COc1ccc2[nH]cc(CCNC(=O)CS(=O)(=O)Cc3ccccc3)c2c1 | 15.7%
16 | Fc1ccc(-c2n[nH]c(=S)n2-c2ccc3c(c2)OCCO3)cc1 | 7.72%
17 | CCc1nc(SCC(=O)Nc2c(C)n(C)n(-c3ccccc3)c2=O)n[nH]1 | -5.84%
18 | Cc1ccc(-n2cccn2)cc1 | 29.8%
19 | Cc1ccc(NC(=O)CSc2cccc[n+]2[O-])c([N+](=O)[O-])c1 | 9.89%
20 | COc1ccc(NC(=O)COc2ccccc2C#N)c(S(=O)(=O)N2CCCCC2)c1 | 1.8%
21 | CSCCNCc1cn(-c2ccc(F)cc2F)nc1-c1ccccc1C | 5.99%
22 | Cc1ccc([N+](=O)[O-])cc1NC(=O)c1ccc2c(c1)OCO2 | 15.2%

Row | Compound | hERG current change (%, negative = inhibition) at 1uM
23 | O=S(=O)(Nc1nc2ccccc2nc1OCC(F)(F)F)c1cccs1 | 10.2%
24 | CCc1cnccc1CCC(=O)Nc1ccccc1C | 2%
25 | Clc1ccc(SCc2cc(-c3ccccc3)on2)cc1 | 8.23%
26 | CC(=O)c1cccc(NC(=O)CCC(=O)Oc2ccc(C)cc2)c1 | -3.64%
27 | N#C/C(=C\c1ccc[nH]1)C(=O)NCC1CCCO1 (centres unmarked) | 9.61%
28 | CCOC(=O)c1cnc(SC2CC(=O)N(c3ccccc3)C2=O)nc1N (centres unmarked) | 14.8%
29 | CN(Cc1ccco1)C(=O)CCc1nc2sc3c(c2c(=O)[nH]1)CCCC3 | -2.08%
30 | CCOC(=O)c1ccc(NC(=S)N(CCN2CCCCCC2)Cc2cccs2)cc1 | 8.82%
31 | O=C(O)c1ccc(S(=O)(=O)NC2CCCc3ccccc32)cc1 (centres unmarked) | 0.186%
32 | CN1/C(=C\C(=S)Nc2ccccc2)C(C)(C)c2ccccc21 | 10.9%
33 | Cc1ccc(/C=C/C(=O)O)cc1S(=O)(=O)Nc1ccc(C(=O)O)cc1 | 2.74%
34 | N#CC(=C=[N-])c1nc2ccccc2nc1-[n+]1cccc(NC(=O)c2cccs2)c1 | 3.38%
35 | Cc1ccc(NC(=O)C2CCN(C(=O)NC3CCCCC3)CC2)cc1 | 9.08%
36 | O=C(CSc1nnc(-c2ccncc2)s1)Nc1ccc(Cl)c(C(=O)O)c1 | 16.2%
37 | Cc1ccc(C)c(N2CCN(S(=O)(=O)c3csc(C(N)=O)c3)CC2)c1 | 10.7%
38 | O=C(CSc1ccccc1Cl)N1CCC(c2nc3ccccc3s2)CC1 | 6.29%
39 | CCN(CC)C(=O)C1=C(C)NC(=O)NC1c1ccccc1F (centres unmarked) | -2.94%
40 | COc1ccc(S(=O)(=O)c2ccc(OCC3CO3)cc2)cc1 (centres unmarked) | 12.7%
41 | CCOc1ccc(C(=O)C[n+]2ccc(C(=O)NCCO)cc2)cc1.[Br-] | 11.4%
42 | Cc1cc(OCC(=O)N[C@@H](Cc2ccccc2)C(=O)O)c2c3c(c(=O)oc2c1)CCCC3 | 6.7%
43 | O=C(Nc1ccc(S(=O)(=O)Nc2ncccn2)cc1)c1ccc(N2CCCC2=O)cc1 | 13.8%
44 | CCN(CC(=O)NCc1cccs1)CC(=O)Nc1cccc(S(N)(=O)=O)c1 | 14.5%
